Measurements taken from paper PMC12040169 (PLOS Biology, 2025).
Some of the results follow.

Tested on: T1, C. trachomatis L2/434/Bu expressing GFP (CTL2-GFP)
T1 construct: L2/434/Bu GFP intracellular growth in HeLa cells
Set-up: species or system HeLa; C. trachomatis total inclusion area by high-content imaging, normalised to DMSO
Details: total inclusion area; 28.5 h, 10 µM; inhibitor
Summary of the method: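 After bulk GFP and resorufin fluorescence reads, cells were fixed, stained with Hoechst and imaged by high-content microscopy. Inclusion area and number (GFP) stood in for chlamydial growth, nuclei count (Hoechst) for host cell viability. MICs were derived as for the bulk readout.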

Q: Which “% of control remaining” value does the source give for `CC(C)CNS(=O)(=O)c1ccc(CCC(=O)O)cc1` [CBK287107] here?
A: 93.7611

Q: With `c1nnc(SCc2ccc(CSc3nnc[nH]3)cc2)[nH]1` [CBK263282] as the molecule, how does the “% of control remaining” value read?
A: 101.291

Q: Which “% of control remaining” value does the source give for `COc1ccc(CNC(=O)NC(=O)C2CCN(CCc3c[nH]c4ccccc34)CC2)c(OC)c1` [CBK034864] here?
A: 96.0488

Q: For `COc1cncc(-c2cc(Nc3cccc(OC)c3OC)ncn2)c1` [CBK090728], which “% of control remaining” value is on record?
A: 70.5458

Q: `O=C(NCc1ccccn1)C1CC(=O)N(c2ccccc2)C1` (stereo not shown) [CBK270175] was tested. Which “% of control remaining” value did it give?
A: 84.1992

Q: With `CN(C)CCCn1c(NCc2ccc3c(c2)OCO3)nc2ccccc21` [CBK278273C] as the molecule, how does the “% of control remaining” value read?
A: 98.3969

Q: With `Cc1ncccc1Oc1ccc(NC(=O)N2CCc3ccccc3CC2)cn1` [CBK018383] as the molecule, how does the “% of control remaining” value read?
A: 83.9251

Q: Which “% of control remaining” value does the source give for `COc1ccc(NC(=O)c2cc(-c3cccc(Cl)c3)nc3ccccc23)c([N+](=O)[O-])c1` [CBK267777] here?
A: 108.793

Q: For `CC1(C)Cc2nc(N3CCOCC3)ncc2C(NC(=O)c2cccs2)C1` (stereo not shown) [CBK307369], which “% of control remaining” value is on record?
A: 65.9873

Q: `O=C(CSc1nnc(C2CC2)o1)Nc1ccc(CN2CCOCC2)cc1` [CBK305015] was tested. Which “% of control remaining” value did it give?
A: 59.9143

Q: For `COc1cc(OC)c(CCNC2CCCc3c2cnn3C)c(OC)c1` (stereo not shown) [CBK304482], which “% of control remaining” value is on record?
A: 38.3576

Q: Which “% of control remaining” value does the source give for `S=C(NCc1ccco1)NCc1cn(-c2ccccc2)nc1-c1ccccc1` [CBK266895] here?
A: 80.216

Q: How did the “% of control remaining” value turn out when `c1ccc2c(c1)OCC(COc1ccnc(N3CCCN(CCc4ccc5ccccc5c4)CC3)n1)O2` (stereo not shown) [CBK083983] was run?
A: 82.3055

Q: Which “% of control remaining” value does the source give for `CCOC(=O)C(C)n1nc(CC)n2c(cc3sc(C)cc32)c1=O` (stereo not shown) [CBK284123] here?
A: 88.143

Q: How did the “% of control remaining” value turn out when `COc1ccc(CN2CCC(Oc3nccnc3OCc3cc(C)on3)CC2)cc1` [CBK082953T] was run?
A: 100.475

Q: How did the “% of control remaining” value turn out when `O=C(COc1ccc2ccccc2c1)Nc1ccc(Cl)cc1Cl` [CBK263598] was run?
A: 89.8425

Q: How did the “% of control remaining” value turn out when `NC(=O)c1cccc(COc2ccccc2C(=O)Nc2ccc(-c3ccsc3)cc2C(=O)O)c1` [CBK001718] was run?
A: 122.633

Q: Which “% of control remaining” value does the source give for `O=C(O)c1ccc(NS(=O)(=O)c2cc(F)c(Br)cc2F)cc1` [CBK034045] here?
A: 103.214

Q: With `O=C(NCc1ccc(C(F)(F)F)nc1)OCCc1ccncc1` [CBK200132] as the molecule, how does the “% of control remaining” value read?
A: 90.4652

Q: With `COc1ccc(C(=O)Nc2nc3ccc(S(C)(=O)=O)cc3s2)cc1` [CBK287338] as the molecule, how does the “% of control remaining” value read?
A: 100.037

Q: `CC(=O)N(C)c1nc(-c2ccccc2)ccc1C(=O)NCc1ccco1` [CBK106334] was tested. Which “% of control remaining” value did it give?
A: 105.411

Q: `Fc1ccc(CNc2c(-c3cccs3)nc3cnccn23)cc1` [CBK283487] was tested. Which “% of control remaining” value did it give?
A: 74.7952
